This note sets out measurements from PMC4336329 (PLoS ONE, 2015).

Hit rate of the full screen: of about 310,000 compounds, about 14,000 (4.5%) showed an effect of 50% or more. Effects have a minus sign here. Some of the results follow.
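Further: peak tail current of the secondary pulse compared with the same well before compound.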

Sequence of human ether-à-go-go-related gene (hERG) potassium channel (Q12809 whole entry, looked up): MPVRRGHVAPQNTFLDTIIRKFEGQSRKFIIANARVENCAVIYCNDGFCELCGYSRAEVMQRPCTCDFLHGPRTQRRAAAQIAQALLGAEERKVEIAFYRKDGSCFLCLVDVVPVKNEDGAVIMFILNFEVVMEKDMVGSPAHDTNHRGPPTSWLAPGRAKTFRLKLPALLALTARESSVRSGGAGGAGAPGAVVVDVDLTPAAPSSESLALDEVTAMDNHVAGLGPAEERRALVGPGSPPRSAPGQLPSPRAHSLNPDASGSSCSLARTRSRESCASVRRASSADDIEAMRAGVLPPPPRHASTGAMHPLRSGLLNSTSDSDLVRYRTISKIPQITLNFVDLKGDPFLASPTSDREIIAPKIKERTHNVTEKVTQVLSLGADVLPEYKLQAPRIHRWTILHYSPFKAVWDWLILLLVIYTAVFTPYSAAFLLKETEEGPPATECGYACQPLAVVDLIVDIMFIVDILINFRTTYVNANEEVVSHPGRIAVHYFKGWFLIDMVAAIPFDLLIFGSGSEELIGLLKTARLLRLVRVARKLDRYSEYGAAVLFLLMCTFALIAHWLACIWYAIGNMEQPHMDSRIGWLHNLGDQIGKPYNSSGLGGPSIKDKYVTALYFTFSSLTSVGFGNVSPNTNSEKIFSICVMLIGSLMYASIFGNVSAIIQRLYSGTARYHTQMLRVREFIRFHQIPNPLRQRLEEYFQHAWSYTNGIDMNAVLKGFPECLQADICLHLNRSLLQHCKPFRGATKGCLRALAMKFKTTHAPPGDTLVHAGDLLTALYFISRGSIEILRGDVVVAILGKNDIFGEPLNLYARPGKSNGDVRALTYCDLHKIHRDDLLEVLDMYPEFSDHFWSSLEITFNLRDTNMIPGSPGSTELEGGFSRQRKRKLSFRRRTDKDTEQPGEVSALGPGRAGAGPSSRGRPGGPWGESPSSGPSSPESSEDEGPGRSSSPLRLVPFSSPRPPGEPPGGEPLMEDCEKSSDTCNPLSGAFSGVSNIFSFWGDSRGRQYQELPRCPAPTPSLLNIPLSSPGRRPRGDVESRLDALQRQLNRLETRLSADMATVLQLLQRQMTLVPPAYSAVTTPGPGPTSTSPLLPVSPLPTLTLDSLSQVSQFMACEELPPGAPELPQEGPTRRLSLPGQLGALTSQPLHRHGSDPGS

The assay has as its target human ether-à-go-go-related gene (hERG) potassium channel (human, UniProt Q12809). Description: primary screen, population patch clamp on CHO cells stably expressing hERG.
Regarding `Cl.NCC(O)c1cc(O)c(O)cc1F` (stereo not shown), the “hERG current change (%, negative = inhibition) at 10uM” value was determined as 1.33%.
On to `Clc1cccc(Cl)c1CON/C=N/c1ncnc2sccc12`, for which the “hERG current change (%, negative = inhibition) at 10uM” value came out at 0.651%.
For the compound `COc1ccc(C(=O)Nc2ccc(C)c(S(=O)(=O)N3CCCCCC3)c2)cc1`, the “hERG current change (%, negative = inhibition) at 10uM” value is recorded as -9.69%.
To `Cc1occc1-c1nnc(SCC(=O)Nc2ccccc2)n1C` belongs 9.72%; to `COc1ccc(S(=O)(=O)N2CCCC2)c(Cl)c1Cl`, -7.22%.
As for `CCOC(=O)C/C(C)=N/NC(=O)Nc1ccccc1`, the “hERG current change (%, negative = inhibition) at 10uM” value is listed as -0.466%.
To `COc1ccc(C(=O)NC2(C(F)(F)F)NC(=O)N(CCCc3ccccc3)C2=O)cc1OC` (stereo not shown) belongs -19.9%; to `CSc1nsc(SCC(=O)N2CCCc3ccccc32)n1`, -34.7%; to `COc1ccc(C(=O)Nc2nnc(SCC(=O)NC3CC3)s2)cc1`, 7.39%.
For the compound `CCOC(=O)c1cc2c(C)[nH]c(C)c2cc(C(=O)OCC)c1=O`, the “hERG current change (%, negative = inhibition) at 10uM” value came to 12.3%.
The same measure for `O=C(C(c1ccccc1)c1ccccc1)N1CCOCC1`: 0.742%.
For `CCOc1ccc(C(=O)NCC(=O)OCC(=O)N2CCC(C)CC2)cc1`, the “hERG current change (%, negative = inhibition) at 10uM” value is -14.1%.
In the case of `COc1ccc(/C(N)=N/OC(=O)c2ccc3c(c2)OCO3)cc1OC`, the “hERG current change (%, negative = inhibition) at 10uM” value is on record as -8.74%.
For `CCCN(C(=O)COC(=O)CNC(=O)c1ccc2ccccc2c1)c1c(N)n(Cc2ccccc2)c(=O)[nH]c1=O`, the “hERG current change (%, negative = inhibition) at 10uM” value turned out to be 5.31%.
To `C/C=C(\C)CN1CCN(c2ccccc2F)CC1` belongs -7.54%; to `O=[N+]([O-])c1cccc(/C=N/Nc2nccnc2Cl)c1`, -16.5%.
With `CN1C(=O)/C(=C/c2ccccc2Cl)Sc2ccc(C(=O)NCc3cccnc3)cc21`, the “hERG current change (%, negative = inhibition) at 10uM” value is listed as -30.1%.
The same measure for `CCS(=O)(=O)N1Cc2ccccc2CC1C(=O)OCC(=O)N(C(C)C)C(C)C` (stereo not shown): -1.99%; for `COc1ccccc1NC1=NC(C)(C)N=C(N)N1`: 23.2%; for `COC(=O)[C@@]1(Cc2ccc(F)cc2)[C@H]2c3cc(C(=O)N(C)C)n(Cc4ccccc4)c3C[C@H]2CN1C(=O)c1ccccc1`: -13.3%.
Take `Cc1ccc(OCc2nnc(SCC(N)=O)n2N)cc1`: the “hERG current change (%, negative = inhibition) at 10uM” value was 3.47%.
On to `COc1ccccc1CNc1ncnc2sccc12`, for which the “hERG current change (%, negative = inhibition) at 10uM” value was 19.9%.
Regarding `CN(C)S(=O)(=O)c1ccc(NC(=O)c2cc3ccccc3o2)cc1`, the “hERG current change (%, negative = inhibition) at 10uM” value is on record as -3.15%.
For `C[C@H](N)C(=O)OCc1ccc([N+](=O)[O-])cc1.O=S(=O)(O)c1ccccc1`, the “hERG current change (%, negative = inhibition) at 10uM” value stood at 7.4%.
As for `CCOC(=O)c1nc(C)n(-c2cc(OC)c(Cl)cc2Cl)n1`, the “hERG current change (%, negative = inhibition) at 10uM” value is 5.95%.
To `O=C(O)CC(NS(=O)(=O)c1c(F)cc(F)cc1Br)c1ccccc1Cl` (stereo not shown) belongs 0.167%.
Take `CCOC(=O)/C(C#N)=C/Nc1cc(C(C)(C)C)sc1C(C)=O`: the “hERG current change (%, negative = inhibition) at 10uM” value was 23.4%.
For `COC(=O)C1=C(N)Oc2cc(C)n(CCN3CCOCC3)c(=O)c2C1c1cccnc1` (stereo not shown), the “hERG current change (%, negative = inhibition) at 10uM” value is given as 14.9%.
As for `Cc1c(CN2CCCC(CO)(Cc3cccc(Cl)c3)C2)cnn1C` (stereo not shown), the “hERG current change (%, negative = inhibition) at 10uM” value is reported as -11.2%.
The same measure for `CCOC(=O)CSc1nnc(CSc2nc3ccccc3s2)n1C`: 0.37%; for `C=CCN(C(=O)c1csnn1)C(C(=O)NC1CCCCC1)c1ccc(F)cc1` (stereo not shown): -5.43%.
The same measure for `COc1ccc(S(=O)(=O)N2CCOCC2)cc1NC(=O)CCNC(=O)c1ccc([N+](=O)[O-])cc1`: -26%; for `CC(C)C(NC(=O)c1ccc(S(=O)(=O)N2CCOCC2)cc1)c1nc2ccccc2[nH]1` (stereo not shown): -14.6%; for `CC(=O)N1CCOc2ccc(S(=O)(=O)N3CCC(C(=O)NCc4ccc(C)cc4)CC3)cc21`: -12.7%.
In the case of `CN1C(=O)C2(OCC(C)([N+](=O)[O-])CO2)c2ccccc21` (stereo not shown), the “hERG current change (%, negative = inhibition) at 10uM” value amounted to 16.9%.
With `C#CCNC(=O)C1=C[C@H](C2CCCCC2)[C@@H](CCCO)[C@H](OCC)O1`, the “hERG current change (%, negative = inhibition) at 10uM” value stood at 6.17%.
To `Clc1ccc(Cc2nc(-c3cccnc3)no2)cc1` belongs -16.1%.
On to `COc1ccsc1C(=O)NCCN1CCOCC1`, for which the “hERG current change (%, negative = inhibition) at 10uM” value is recorded as 5.39%.
For the compound `Cc1cccc(OCC(=O)Nc2ccc3c(c2)nc(CN2CCCCC2)n3C)c1.Cl`, the “hERG current change (%, negative = inhibition) at 10uM” value is -25.3%.
Regarding `CC(=O)c1ccc(NC(=O)C2CC(c3ccc(F)cc3)=NO2)cc1` (stereo not shown), the “hERG current change (%, negative = inhibition) at 10uM” value is given as -6.78%.
Consider `CC(C)(C)OC(=O)N1CCC(c2c(C(=O)O)cnn2-c2ccccc2)CC1`, for which the “hERG current change (%, negative = inhibition) at 10uM” value amounted to 11%.
To `COc1cccc(CN2CC(C(=O)N(C)Cc3ccc(C)cc3)CCC2=O)c1` (stereo not shown) belongs -7.44%; to `Cc1c(NC(=O)COc2c(F)c(F)c(F)c(F)c2F)c(=O)n(-c2ccccc2)n1C`, 0.328%.
